# From PubChem BioAssay AID624417 (National Center for Advancing Translational Sciences (NCATS), 2012)
# The whole screen tested about 410,000 compounds, of which about 6,400 (1.6%) were called active. This list was built around the results that the source calls inconclusive (neither active nor inactive); the mix of calls is not that of the screen. Calls follow the shape of the dose curve; as a rule, active = well fitted inhibition curve with a large enough effect; inconclusive = small, poorly fitted or top-dose-only effect; inactive = no such curve, though single readings can be large or run the other way. Potencies of inconclusive entries are left out as doubtful fits.
# Target: Glucagon-like peptide 1 receptor (Homo sapiens) (UniProt P43220)
# Chain of UniProt P43220 (P43220 whole entry, looked up): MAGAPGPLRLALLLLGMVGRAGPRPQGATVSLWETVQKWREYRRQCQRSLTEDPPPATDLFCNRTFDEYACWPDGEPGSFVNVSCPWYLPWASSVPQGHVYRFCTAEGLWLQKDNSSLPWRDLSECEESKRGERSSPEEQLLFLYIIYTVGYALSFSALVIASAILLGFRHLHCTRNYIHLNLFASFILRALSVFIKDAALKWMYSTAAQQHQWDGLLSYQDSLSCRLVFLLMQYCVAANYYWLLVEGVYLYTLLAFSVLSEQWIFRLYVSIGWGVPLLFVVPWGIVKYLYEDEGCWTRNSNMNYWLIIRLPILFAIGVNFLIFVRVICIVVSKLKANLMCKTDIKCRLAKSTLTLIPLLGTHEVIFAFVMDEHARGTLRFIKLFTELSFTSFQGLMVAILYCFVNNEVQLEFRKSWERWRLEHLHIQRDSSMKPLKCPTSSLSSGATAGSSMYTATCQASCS
# Assay: qHTS of GLP-1 Receptor Inverse Agonists (Inhibition Mode); also: nearly all actives have a fitted effect of over 55% in size
# Conditions: HEK293 GLP-1R CRE-luciferase, luminescence, 24 h, GLP-1R form is constitutively active; series mostly up to 38.3 µM
# Method in brief: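 Luminescence readout: a drop in cAMP-driven luciferase signal flags inverse agonism at a constitutively active GLP-1R stably expressed in HEK293. Compound exposure lasted 24 hr at 37 deg C, 5% CO2.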
# Potency is read from the fitted curve at half-maximal effect; tags tell the direction and shape of the fitted curve.
row,SMILES,Potency
1,COc1cc(CNCc2ccccn2)ccc1OCc1ccccc1Cl,"inconclusive [inhibitor, partial curve, poor fit]"
2,CC1CCCN(CC(O)COC(c2ccccc2)c2ccccc2)C1 (stereo unspecified),"inconclusive [inhibitor, partial curve, poor fit]"
3,COc1ccccc1C1C=C(c2ccc(Cl)cc2)Nc2nc(-c3ccc(Cl)cc3)nn21 (stereo unspecified),"inconclusive [inhibitor, single point]"
4,O=C(NC1CCCCC1)c1ccc(-c2ccc(Cl)cc2)o1,"inconclusive [inhibitor, partial curve, poor fit]"
5,Cc1ccc2oc(=O)n(CCNC(=O)Nc3ccc(C)c(F)c3)c2c1,"inconclusive [inhibitor, partial curve, poor fit]"
6,CCc1c(C(=O)N/N=C/c2sccc2C)nnn1-c1nonc1N,inactive
7,CCc1c(-c2cccc(Br)c2)ncn1Cc1cccc(-c2ccccc2)c1,"inconclusive [inhibitor, partial curve, poor fit]"
8,CCOc1ccccc1N1CCN(C(=O)c2cc3c(C)cc(C)cc3[nH]2)CC1,"inconclusive [inhibitor, partial curve, poor fit]"
9,O=C1CC(NNc2ccccc2)C(=O)N1c1ccccc1 (stereo unspecified),"inconclusive [inhibitor, single point]"
10,O=C(c1cccc([N+](=O)[O-])c1)N1CCCC(C(=O)N2CCN(c3ccccc3)CC2)C1 (stereo unspecified),inactive
11,CCN(CC)C(=O)c1ccc(COc2ccccc2Cl)cc1,"inconclusive [inhibitor, single point]"
12,O=C(c1ccc(COc2ccccc2Cl)o1)N1N=C(C(F)F)CC1(O)C(F)F (stereo unspecified),"inconclusive [inhibitor, full curve]"
13,CC1CN(CC(O)COC(c2ccccc2)c2ccccc2)CC(C)O1 (stereo unspecified),"inconclusive [inhibitor, single point]"
14,O=C(/C=C/c1ccc2c(c1)OCO2)NCc1ccco1,inactive
15,COc1cc(C2CC(c3cccs3)=NN2C(=O)CCl)ccc1OC(F)F (stereo unspecified),"inconclusive [inhibitor, partial curve, poor fit]"
16,O=C(CNCc1ccc(Cl)cc1)Nc1ccc(C(=O)N2CCCCCC2)cc1,"inconclusive [inhibitor, full curve]"
17,CCn1c2ccccc2c2cc(NC(=O)COC(=O)c3ccc(O)cc3)ccc21,"inconclusive [inhibitor, single point]"
18,O=C(N[C@H]1C/C=C\C(c2ccc(F)cc2)N(Cc2ccccc2)C(=O)C1)OCC1c2ccccc2-c2ccccc21 (stereo partly specified),"inconclusive [inhibitor, single point]"
19,COc1ccccc1-c1ncn(Cc2cccc(-c3ccccc3)c2)c1-c1cc(C)cc(C)c1,"inconclusive [inhibitor, partial curve, poor fit]"
20,Cc1cc(-c2ccc(C)c(S(=O)(=O)NCc3ccc(Br)cc3)c2)on1,"inconclusive [inhibitor, partial curve, poor fit]"
21,Cc1cccc(Nc2nc(N)c([N+](=O)[O-])c(N3CC(C)OC(C)C3)n2)c1 (stereo unspecified),"inconclusive [inhibitor, single point]"

row,SMILES,Potency
1,Cn1c(=O)[nH]c(=O)c2c1nc(Br)n2CCOc1ccccc1,inactive
2,Cn1c(CSCCOc2ccccc2)n[nH]c1=S,"inconclusive [inhibitor, single point]"
3,Clc1ccc(CN2CCC(c3nc4ccc(Cl)cc4[nH]3)CC2)cc1,active: 7.94 µM
4,CC1CCCC(NC(=S)Nc2ccc(SC(F)F)cc2)C1C (stereo unspecified),"inconclusive [inhibitor, partial curve, poor fit]"
5,N#C/C(=C/c1ccc(Sc2nc3ccccc3[nH]2)o1)c1cccc(F)c1,"inconclusive [inhibitor, single point]"
6,CC(C)CCNc1nc(-c2ccco2)c2c(c1C#N)CCCC2,"inconclusive [inhibitor, single point]"
7,O=C(O)CCCN1C(=O)C2C3CC(C2C1=O)C1C(c2ccccc2)c2sc(=O)n(-c4ccccc4)c2SC31 (stereo unspecified),"inconclusive [inhibitor, single point]"
8,COc1ccc(N(CC(=O)NCCSCc2ccco2)S(=O)(=O)c2ccccc2)cc1,"inconclusive [inhibitor, single point]"
9,CN1CC=C2C(C#N)=C(N)C(C#N)(C#N)C(CCc3ccccc3)C2C1 (stereo unspecified),inactive
10,C/C(=N\N(Cc1ccccc1)c1ccccc1)c1ccncc1,"inconclusive [inhibitor, partial curve, poor fit]"
11,Cc1cc(C)n2nc(C(=O)NCc3ccccc3)cc2n1,inactive
12,COc1cc(/C=C2/C(=O)c3cccc([N+](=O)[O-])c3C2=O)c(Br)cc1O,active: 10 µM
13,CCOc1ccc(CNC(=O)C2Cc3cc(S(=O)(=O)N4CCCCCC4)ccc3N2C(C)=O)cc1 (stereo unspecified),inactive
14,CSc1ccc(/C=C(\NC(=O)c2ccco2)C(=O)N2CCCCC2)cc1,"inconclusive [inhibitor, partial curve, poor fit]"
15,COc1ccc(NC(=O)c2cccs2)c([N+](=O)[O-])c1,inactive
16,O=C(CCn1cnc2onc(-c3ccc(F)cc3)c2c1=O)N1CCN(c2cccc(Cl)c2)CC1,"inconclusive [inhibitor, single point]"
17,CC(=O)NCCc1nc2cc(NS(=O)(=O)c3ccc(Cl)cc3)ccc2n1C,inactive
18,Cc1cc(N=Nc2ccc(C)c(N=Nc3cc(C)c(N)cc3N)c2)c(N)cc1N,"inconclusive [inhibitor, single point]"
19,Clc1ccc(-c2cn(-c3ccccc3)c3[n+]2CCS3)cc1,"inconclusive [inhibitor, partial curve]"
20,CCc1c(-c2ccccc2F)ncn1Cc1cccc(-c2ccccc2)c1,"inconclusive [inhibitor, partial curve, poor fit]"
